Measured values reported in the supplement of paper PMC9174493.
Some of the results follow. Single values of this set are uncertain. Values with irradiation are relative to irradiated vehicle.

System: A549-Dual
Assay: ISRE reporter (Lucia luciferase) activity, viability-corrected, relative to vehicle (fold change vs vehicle); higher = more activation of STING-IRF / NF-kB immune response reporter
Details: 0.1 µM; irradiation: 8 Gy/4 fr

Row | Compound | ISRE reporter
1 | O=c1[nH]c(=O)n(C2CC(O)C(CO)O2)cc1F (centres undefined) [Floxuridine] | 0.684
2 | CC1(C)CCC(CN2CCN(c3ccc(C(=O)NS(=O)(=O)c4ccc(NCC5CCOCC5)c([N+](=O)[O-])c4)c(Oc4cnc5[nH]ccc5c4)c3)CC2)=C(c2ccc(Cl)cc2)C1 [Venetoclax (ABT-199, GDC-0199)] | 0.852
3 | Cc1ccc(NC(=O)c2ccc(CN3CCN(C)CC3)cc2)cc1Nc1nc(-c2cccnc2)cs1 [Masitinib (AB1010)] | 1.11
4 | CCc1cc(/C(C)=N/OCc2ccc(C3CCCCC3)c(C(F)(F)F)c2)ccc1CN1CC(C(=O)O)C1 [BAF312 (Siponimod)] | 0.952
5 | CN(C)C(=O)COC(=O)Cc1ccc(OC(=O)c2ccc(NC(=N)N)cc2)cc1.CS(=O)(=O)O [Camostat Mesilate] | 1.01
6 | Nc1nc(=S)c2[nH]cnc2[nH]1 [Thioguanine] | 0.961
7 | OCC1OC(Oc2cc(O)cc(/C=C/c3ccc(O)cc3)c2)C(O)C(O)C1O (centres undefined) [Polydatin] | 1.23
8 | COc1cc(N2CCC(N3CCN(C)CC3)CC2)ccc1Nc1ncc(Cl)c(Nc2ccccc2P(C)(C)=O)n1 | 0.989
9 | Cc1cccn2c(=O)c(-c3nnn[n-]3)cnc12.[K+] [Pemirolast potassium] | 1.02
10 | Cc1cccc(N(C)C(=S)Oc2ccc3ccccc3c2)c1 [Tolnaftate] | 1.15

Same assay, conditions: 0.1 µM; irradiation: none

Row | Compound | ISRE reporter
11 | C=CC(=O)Nc1cc(Nc2nccc(-c3cn(C)c4ccccc34)n2)c(OC)cc1N(C)CCN(C)C [Osimertinib (AZD9291)] | 0.974
12 | CC1CC2C3CCC4=CC(=O)C=CC4(C)C3(F)C(O)CC2(C)C1(O)C(=O)COP(=O)([O-])[O-].[Na+].[Na+] (centres undefined) [Dexamethasone Sodium Phosphate] | 0.358
13 | O=C(O)CCCN1CCC(OC(c2ccc(Cl)cc2)c2ccccn2)CC1.O=S(=O)(O)c1ccccc1 (centres undefined) [Bepotastine Besilate] | 1.29
14 | CC(=O)OC(C)C(C)C(=O)OCC12C3CC4(C)C(=CCC5C6(C)CCC(OC7OC(C(=O)[O][Na])C(OC8OC(CO)C(O)C(O)C8O)C(O)C7OC7OCC(O)C(O)C7O)C(C)(CO)C6CCC54C)C1CC(C)(C)C(O3)C2O (centres undefined) [Sodium Aescinate] | 0.939
15 | Nc1nc(CC(=O)Nc2ccc(CCNCC(O)c3ccccc3)cc2)cs1 (centres undefined) [Mirabegron] | 1.02
16 | O=C1OC(OC(=O)c2cccnc2Nc2cccc(C(F)(F)F)c2)c2ccccc21 (centres undefined) [Talniflumate] | 0.856
17 | CN1C(C(=O)Nc2ccccn2)=C(O)c2sccc2S1(=O)=O [Tenoxicam] | 1.08
18 | CCC(=O)NS(=O)(=O)c1ccc(-c2c(-c3ccccc3)noc2C)cc1 [Parecoxib] | 0.893
19 | CNCC(O)C(O)C(O)C(O)CO.Cc1c(Nc2ncccc2C(=O)O)cccc1C(F)(F)F [Flunixin Meglumin] | 0.967
20 | Cc1cncc(CN2CCC(=C3c4ccc(Cl)cc4CCc4cccnc43)CC2)c1.O=C(O)/C=C/C(=O)O [Rupatadine Fumarate] | 0.792
21 | COC(=O)CC(O)(CCCC(C)(C)O)C(=O)OC1C(OC)=CC23CCCN2CCc2cc4c(cc2C13)OCO4 (centres undefined) [Homoharringtonine] | 1.02
22 | CC(C(=O)[O-])c1ccc(CC2CCCC2=O)cc1.[Na+] (centres undefined) [Loxoprofen Sodium] | 1.08
23 | C=C1c2cccc(O)c2C(=O)C2=C(O)C3(O)C(=O)C(C(N)=O)=C(O)C(N(C)C)C3C(O)C12.Cl (centres undefined) [Methacycline HCl] | 1.41
24 | CC1CCC2(C(=O)OC3OC(COC4OC(CO)C(OC5OC(C)C(O)C(O)C5O)C(O)C4O)C(O)C(O)C3O)CCC3(C)C(=CCC4C5(C)CC(O)C(O)C(C)(CO)C5CCC43C)C2C1C (centres undefined) [Asiaticoside] | 1.51
25 | Nc1nc(F)nc2c1ncn2C1OC(CO)C(O)C1O (centres undefined) [Fludarabine] | 0.904
26 | O=NN(CCCl)C(=O)NC1CCCCC1 [Lomustine] | 0.935
27 | O=CC(O)C(O)C(O)C(O)COC1OC(CO)C(O)C(O)C1O (centres undefined) [Melibiose] | 1.47
28 | O.S=c1nc[nH]c2nc[nH]c12 [6-Mercaptopurine (6-MP) Monohydrate] | 0.865
29 | CC(C(=O)O)c1cccc(C(=O)c2ccccc2)c1 (centres undefined) [Ketoprofen] | 0.753
30 | CNC1CCC(c2ccc(Cl)c(Cl)c2)c2ccccc21.Cl (centres undefined) [Sertraline HCl] | 0.819

Row | Compound | ISRE reporter
31 | CC1(C)OC2CC3C4CCC5=CC(=O)CCC5(C)C4(F)C(O)CC3(C)C2(C(=O)CCl)O1 (centres undefined) [Halcinonide] | 0.439
32 | CC(=O)OC12COC1CC(O)C1(C)C(=O)C(O)C3=C(C)C(OC(=O)C(O)C(NC(=O)OC(C)(C)C)c4ccccc4)CC(O)(C(OC(=O)c4ccccc4)C21)C3(C)C (centres undefined) [Docetaxel] | 6.65
33 | CCN(CC)Cc1cc(Nc2ccnc3cc(Cl)ccc23)ccc1O.Cl.Cl [Amodiaquine hydrochloride] | 1.09
34 | Cc1c(N)c(=O)n(-c2ccccc2)n1C [4-Aminoantipyrine] | 0.819
35 | Cn1cnc2c(F)c(Nc3ccc(Br)cc3F)c(C(=O)NOCCO)cc21 | 1.36
36 | CC1(C)C2CCC1(C)C(O)C2 (centres undefined) [Borneol] | 1.24
37 | CC1CC2C3CCC4=CC(=O)C=CC4(C)C3(Cl)C(O)CC2(C)C1(OC(=O)c1ccco1)C(=O)CCl (centres undefined) [Mometasone furoate] | 0.21
38 | CCN(CC)CCCC(C)Nc1ccnc2cc(Cl)ccc12.O=P(O)(O)O.O=P(O)(O)O (centres undefined) [Chloroquine Phosphate] | 1.1
39 | COc1cc2c(cc1Cc1cccc(Cl)c1F)c(=O)c(C(=O)O)cn2C(CO)C(C)C (centres undefined) [Elvitegravir (GS-9137, JTK-303)] | 1.1
40 | O=c1[nH]c(=O)n(C2CC(O)C(CO)O2)cc1F (centres undefined) [Floxuridine] | 2.23
41 | CC1(C)CCC(CN2CCN(c3ccc(C(=O)NS(=O)(=O)c4ccc(NCC5CCOCC5)c([N+](=O)[O-])c4)c(Oc4cnc5[nH]ccc5c4)c3)CC2)=C(c2ccc(Cl)cc2)C1 [Venetoclax (ABT-199, GDC-0199)] | 0.763
42 | Cc1ccc(NC(=O)c2ccc(CN3CCN(C)CC3)cc2)cc1Nc1nc(-c2cccnc2)cs1 [Masitinib (AB1010)] | 1.08
43 | CCc1cc(/C(C)=N/OCc2ccc(C3CCCCC3)c(C(F)(F)F)c2)ccc1CN1CC(C(=O)O)C1 [BAF312 (Siponimod)] | 0.957
44 | CN(C)C(=O)COC(=O)Cc1ccc(OC(=O)c2ccc(NC(=N)N)cc2)cc1.CS(=O)(=O)O [Camostat Mesilate] | 0.99
45 | Nc1nc(=S)c2[nH]cnc2[nH]1 [Thioguanine] | 1.02
46 | OCC1OC(Oc2cc(O)cc(/C=C/c3ccc(O)cc3)c2)C(O)C(O)C1O (centres undefined) [Polydatin] | 2.34
47 | COc1cc(N2CCC(N3CCN(C)CC3)CC2)ccc1Nc1ncc(Cl)c(Nc2ccccc2P(C)(C)=O)n1 | 1.1
48 | Cc1cccn2c(=O)c(-c3nnn[n-]3)cnc12.[K+] [Pemirolast potassium] | 1.2
49 | Cc1cccc(N(C)C(=S)Oc2ccc3ccccc3c2)c1 [Tolnaftate] | 0.775
